In the supplement of paper PMC3722116:

How the values were obtained:
lumefantrine [1] = compound: T1, CCCCN(CCCC)CC(O)c1cc(Cl)cc2c1-c1ccc(Cl)cc1/C2=C/c1ccc(Cl)cc1 [lumefantrine]
Procedure: (§1)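 Hypoxanthine uptake by fresh isolates, duplicate serial dilutions, 24 h of drug plus 18 h after the label; sigmoid fit per isolate.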

mefloquine [2] = compound: T2, OC(c1cc(C(F)(F)F)nc2c(C(F)(F)F)cccc12)C1CCCCN1 [mefloquine]
Procedure: as §1

artesunate [3] = compound: T3, C[C@H]1[C@H](OC(=O)CCC(=O)O)O[C@@H]2O[C@@]3(C)CC[C@H]4[C@H](C)CC[C@@H]1[C@@]24OO3 [artesunate]
Procedure: as §1

lumefantrine [4] = compound: T1, lumefantrine; assay: slope of the dose-response curve (dimensionless); higher = steeper concentration-effect curve
Procedure: as §1

mefloquine [5] = compound: T2, mefloquine; assay: as above
Procedure: as §1

artesunate [6] = compound: T3, artesunate; assay: as above
Procedure: as §1

chloroquine [7] = compound: T4, CCN(CC)CCCC(C)Nc1ccnc2cc(Cl)ccc12 [chloroquine]
Procedure: as §1

chloroquine [8] = compound: T4, chloroquine; assay: slope of the dose-response curve (dimensionless); higher = steeper concentration-effect curve
Procedure: as §1

| Test System | EC50 of parasite growth (lumefantrine [1]) | EC50 of parasite growth (mefloquine [2]) | EC50 of parasite growth (artesunate [3]) | slope (lumefantrine [4]) | slope (mefloquine [5]) | slope (artesunate [6]) | EC50 of parasite growth (chloroquine [7]) | slope (chloroquine [8]) |
| --- | --- | --- | --- | --- | --- | --- | --- | --- |
| Plasmodium falciparum isolate 464 (pfmdr1 allele: 86N, 1042N, pfmdr1 copies: 3) | 0.0377 µg/mL | 0.115 µg/mL | 0.00105 µg/mL | 2.09 | 4.9 | 9.99 |  |  |
| Plasmodium falciparum isolate 218 (pfmdr1 allele: 86N, 1042N, pfmdr1 copies: 2) | 0.0418 µg/mL | 0.0432 µg/mL | 0.00237 µg/mL | 2.14 | 3.17 | 9.9 |  |  |
| Plasmodium falciparum isolate 52 (pfmdr1 allele: 86N, 1042N, pfmdr1 copies: 2) | 0.0575 µg/mL | 0.0594 µg/mL | 0.0012 µg/mL | 2.7 | 5.41 | 6.08 |  |  |
| Plasmodium falciparum isolate 190 (pfmdr1 allele: 86N, 1042N, pfmdr1 copies: 1) | 0.0202 µg/mL | 0.00572 µg/mL | 0.00104 µg/mL | 1.38 | 1.48 | 3.57 |  |  |
| Plasmodium falciparum isolate 397 (pfmdr1 allele: 86Y, pfmdr1 copies: 1) | 0.0172 µg/mL | 0.00426 µg/mL | 0.000671 µg/mL | 3.44 | 3.99 | 5.42 |  |  |
| Plasmodium falciparum isolate 264 (pfmdr1 allele: 86Y, pfmdr1 copies: 1) | 0.0317 µg/mL | 0.00674 µg/mL | 0.00135 µg/mL | 2.14 | 2.66 | 4.73 |  |  |
| Plasmodium falciparum isolate 329 (pfmdr1 allele: 86N, 1042N, pfmdr1 copies: 1) | 0.0302 µg/mL | 0.0277 µg/mL | 0.00125 µg/mL | 2.12 | 2.75 | 4.26 |  |  |
| Plasmodium falciparum isolate 474 (pfmdr1 allele: 86N, 1042N, pfmdr1 copies: 1) | 0.0035 µg/mL | 0.0059 µg/mL | 0.000327 µg/mL | 4.11 | 1.55 | 5.63 |  |  |
| Plasmodium falciparum isolate 161 (pfmdr1 allele: 1042D, pfmdr1 copies: 1) | 0.00293 µg/mL | 0.00443 µg/mL | 0.000502 µg/mL | 2.65 | 2.32 | 4.31 |  |  |
| Plasmodium falciparum isolate 298 (pfmdr1 allele: 86N, 1042N, pfmdr1 copies: 1) | 0.0428 µg/mL | 0.0319 µg/mL | 0.00172 µg/mL | 1.92 | 2.24 | 6.41 |  |  |
| Plasmodium falciparum isolate 277 (pfmdr1 allele: 86N, 1042N, pfmdr1 copies: 2) | 0.0679 µg/mL | 0.0313 µg/mL | 0.00266 µg/mL | 1.82 | 3.02 | 6.66 |  |  |
| Plasmodium falciparum isolate 437 (pfmdr1 allele: 86N, 1042N, pfmdr1 copies: 2) | 0.0467 µg/mL | 0.083 µg/mL | 0.00111 µg/mL | 3.6 | 3.9 | 9.68 |  |  |
| Plasmodium falciparum isolate 468 (pfmdr1 allele: 86N, 1042N, pfmdr1 copies: 1) | 0.0252 µg/mL | 0.0134 µg/mL | 0.00147 µg/mL | 2.67 | 1.33 | 1.27 |  |  |
| Plasmodium falciparum isolate 42 (pfmdr1 allele: 86N, 1042N, pfmdr1 copies: 1) | 0.0245 µg/mL | 0.0173 µg/mL | 0.000467 µg/mL | 3.77 | 2.69 | 5.07 |  |  |
| Plasmodium falciparum isolate 131 (pfmdr1 allele: 86N, 1042N, pfmdr1 copies: 2) | 0.0632 µg/mL | 0.085 µg/mL | 0.00962 µg/mL | 3.14 | 3.4 | 6.88 |  |  |
| Plasmodium falciparum isolate 212 (pfmdr1 allele: 86N, 1042N, pfmdr1 copies: 3) | 0.0365 µg/mL | 0.054 µg/mL | 0.00112 µg/mL | 4.88 | 9.47 | 1.95 |  |  |
| Plasmodium falciparum isolate 99 (pfmdr1 allele: 86N, 1042N, pfmdr1 copies: 1) | 0.0403 µg/mL | 0.0366 µg/mL | 0.00123 µg/mL | 1.6 | 2.2 | 4.13 |  |  |
| Plasmodium falciparum isolate 320 (pfmdr1 allele: 86N, 1042N, pfmdr1 copies: 3) | 0.0868 µg/mL | 0.0608 µg/mL |  | 2.61 | 3.89 |  |  |  |
| Plasmodium falciparum isolate 126 (pfmdr1 allele: 86N, 1042N, pfmdr1 copies: 3) | 0.0412 µg/mL | 0.00607 µg/mL | 0.00305 µg/mL | 2.83 | 0.943 | 10 |  |  |
| Plasmodium falciparum isolate 123 (pfmdr1 allele: 86N, 1042N, pfmdr1 copies: 2) |  | 0.0167 µg/mL | 0.00196 µg/mL |  | 1.68 | 1.32 | 0.068 µg/mL | 1.42 |
| Plasmodium falciparum isolate 76 (pfmdr1 allele: 86N, 1042N, pfmdr1 copies: 3) |  | 0.064 µg/mL | 0.00427 µg/mL |  | 4.05 | 7.57 | 0.0675 µg/mL | 3.37 |
| Plasmodium falciparum isolate 295 (pfmdr1 allele: 86Y, pfmdr1 copies: 1) |  | 0.00648 µg/mL | 0.00149 µg/mL |  | 2.51 | 3.71 | 0.209 µg/mL | 7.14 |
| Plasmodium falciparum isolate 316 (pfmdr1 allele: 86N, 1042N, pfmdr1 copies: 1) |  | 0.0188 µg/mL | 0.000388 µg/mL |  | 2.71 | 5.41 | 0.184 µg/mL | 2.1 |
| Plasmodium falciparum isolate 441 (pfmdr1 allele: 86N, 1042N, pfmdr1 copies: 1) | 0.0775 µg/mL | 0.0217 µg/mL |  | 7.58 | 2.32 |  |  |  |

| Test System | EC50 of parasite growth (lumefantrine [1]) | EC50 of parasite growth (mefloquine [2]) | EC50 of parasite growth (artesunate [3]) | slope (lumefantrine [4]) | slope (mefloquine [5]) | slope (artesunate [6]) | EC50 of parasite growth (chloroquine [7]) | slope (chloroquine [8]) |
| --- | --- | --- | --- | --- | --- | --- | --- | --- |
| Plasmodium falciparum isolate 51 (pfmdr1 allele: 86N, 1042N, pfmdr1 copies: 2) | 0.0705 µg/mL | 0.071 µg/mL | 0.00115 µg/mL | 2.49 | 6.21 | 8.41 |  |  |
| Plasmodium falciparum isolate 63 (pfmdr1 allele: 86N, 1042N, pfmdr1 copies: 2) |  | 0.0572 µg/mL | 0.00137 µg/mL |  | 2.87 | 3.05 | 0.0397 µg/mL | 1.41 |
| Plasmodium falciparum isolate 282 (pfmdr1 allele: 86N, 1042N, pfmdr1 copies: 2) |  | 0.00165 µg/mL | 0.000219 µg/mL |  | 1.03 | 2.23 | 1.12 µg/mL | 1.9 |
| Plasmodium falciparum isolate 246 (pfmdr1 allele: 1042D, pfmdr1 copies: 1) |  | 0.0344 µg/mL | 0.00276 µg/mL |  | 4.17 | 3.47 | 0.664 µg/mL | 3.11 |
| Plasmodium falciparum isolate 86 (pfmdr1 allele: 86N, 1042N, pfmdr1 copies: 4) |  | 0.029 µg/mL | 0.000199 µg/mL |  | 2.56 | 3.95 | 0.047 µg/mL | 2.73 |
| Plasmodium falciparum isolate 429 (pfmdr1 allele: 86N, 1042N, pfmdr1 copies: 2) |  | 0.0634 µg/mL | 0.00549 µg/mL |  | 4.62 | 3.92 | 0.0944 µg/mL | 2.16 |
| Plasmodium falciparum isolate 1 (pfmdr1 allele: 86N, 1042N, pfmdr1 copies: 3) |  | 0.0317 µg/mL | 0.00244 µg/mL |  | 3.12 | 1.64 | 0.0589 µg/mL | 4.64 |
| Plasmodium falciparum isolate 199 (pfmdr1 allele: 86N, 1042N, pfmdr1 copies: 1) |  | 0.0323 µg/mL | 0.000659 µg/mL |  | 1.91 | 3 | 0.123 µg/mL | 3.42 |
| Plasmodium falciparum isolate 338 (pfmdr1 allele: 86N, 1042N, pfmdr1 copies: 1) |  | 0.00669 µg/mL | 0.00066 µg/mL |  | 1.67 | 2.9 | 0.117 µg/mL | 5.05 |
| Plasmodium falciparum isolate 236 (pfmdr1 allele: 86N, 1042N, pfmdr1 copies: 1) |  | 0.0395 µg/mL | 0.00106 µg/mL |  | 2.59 | 4.04 | 0.306 µg/mL | 3.32 |
| Plasmodium falciparum isolate 233 (pfmdr1 allele: 86N, 1042N, pfmdr1 copies: 3) |  | 0.113 µg/mL | 0.00173 µg/mL |  | 9.89 | 4.27 | 0.0859 µg/mL | 4.26 |
| Plasmodium falciparum isolate 231 (pfmdr1 allele: 86N, 1042N, pfmdr1 copies: 1) |  | 0.0216 µg/mL | 0.000852 µg/mL |  | 2.04 | 3.36 | 0.0339 µg/mL | 1.77 |
| Plasmodium falciparum isolate 200 (pfmdr1 allele: 86N, 1042N, pfmdr1 copies: 3) |  | 0.0418 µg/mL | 0.00044 µg/mL |  | 2.02 | 5.94 | 0.307 µg/mL | 4.04 |
| Plasmodium falciparum isolate 308 (pfmdr1 allele: 86N, 1042N, pfmdr1 copies: 2) |  | 0.0413 µg/mL | 0.00161 µg/mL |  | 1.78 | 8 | 0.1 µg/mL | 3.12 |
| Plasmodium falciparum isolate 225 (pfmdr1 allele: 86N, 1042N, pfmdr1 copies: 1) | 0.0373 µg/mL | 0.0114 µg/mL | 0.00151 µg/mL | 3.09 | 2.03 | 3.45 |  |  |
| Plasmodium falciparum isolate 79 (pfmdr1 allele: 1042D, pfmdr1 copies: 1) | 0.0679 µg/mL | 0.0161 µg/mL | 0.0031 µg/mL | 3.51 | 2.47 | 4.85 |  |  |
| Plasmodium falciparum isolate 112 (pfmdr1 allele: 86N, 1042N, pfmdr1 copies: 1) | 0.0127 µg/mL | 0.0155 µg/mL | 0.000864 µg/mL | 2.63 | 1.96 | 3.72 |  |  |
| Plasmodium falciparum isolate 132 (pfmdr1 allele: 86N, 1042N, pfmdr1 copies: 1) |  | 0.00599 µg/mL | 0.00145 µg/mL |  | 2.88 | 4.03 | 0.0674 µg/mL | 4.72 |
| Plasmodium falciparum isolate 168 (pfmdr1 allele: 86N, 1042N, pfmdr1 copies: 1) |  | 0.0291 µg/mL | 0.00351 µg/mL |  | 4.09 | 4.65 | 0.139 µg/mL | 5.15 |
| Plasmodium falciparum isolate 447 (pfmdr1 allele: 86N, 1042N, pfmdr1 copies: 2) |  | 0.107 µg/mL | 0.0144 µg/mL |  | 4.81 | 4.44 | 0.303 µg/mL | 4.81 |
| Plasmodium falciparum isolate 287 (pfmdr1 allele: 86N, 1042N, pfmdr1 copies: 2) | 0.00372 µg/mL | 0.0241 µg/mL | 0.00208 µg/mL | 1.84 | 2.36 | 2.44 |  |  |
| Plasmodium falciparum isolate 40 (pfmdr1 allele: 86N, 1042N, pfmdr1 copies: 1) |  | 0.00622 µg/mL | 0.000942 µg/mL |  | 2.97 | 3.62 | 0.0419 µg/mL | 3.32 |
| Plasmodium falciparum isolate 469 (pfmdr1 allele: 1042D, pfmdr1 copies: 1) | 0.0213 µg/mL | 0.00717 µg/mL | 0.00113 µg/mL | 1.07 | 1.68 | 1.88 |  |  |

Growth of fresh clinical P. falciparum isolates by hypoxanthine uptake over 42 h; for most isolates 1.6-1,647 nM mefloquine, 0.044-87 nM artesunate, 10-10,256 nM chloroquine, 2.4-236 nM lumefantrine. EC50, lower = more sensitive; slope from the same fit, higher = steeper. No active / inactive call. Fits with a coefficient of variation above 100% are not listed here; 15-28% of fits exceed 15%. Isolates are numbered anew.
